Laboratory results reported in PubChem BioAssay AID485281 (National Center for Advancing Translational Sciences (NCATS), 2010).
Screen size: about 350,000 compounds; about 260 (0.074%) were called active. The inconclusive results got no clear call from the source; some entries with a clear call stand among them for comparison. The call rests on the fitted dose curve; in most records, active means well fitted inhibition curve with a large enough effect; inconclusive means small, poorly fitted or top-dose-only effect; inactive means no such curve, though single readings can be large or run the other way. Potencies beside an inconclusive call are fits to weak or partial responses and may not hold up.
Further: nearly all actives have a fitted effect of over 20% in size.
On the % scale 0 is the no-effect control and ±100 the full control effect; potency means the concentration at half of the fitted maximal effect; tags describe the fitted curve by direction and shape.

The molecules below were run against Ferritin light chain (Equus caballus) (UniProt P02791) (assay: qHTS Assay for Identification of Novel General Anesthetics). Settings: apoferritin/1-aminoanthracene competitive binding, fluorescence; activity change, negative = displacement: at 77.5 µM (top of the series).
Chain of UniProt P02791 (P02791 whole entry, looked up): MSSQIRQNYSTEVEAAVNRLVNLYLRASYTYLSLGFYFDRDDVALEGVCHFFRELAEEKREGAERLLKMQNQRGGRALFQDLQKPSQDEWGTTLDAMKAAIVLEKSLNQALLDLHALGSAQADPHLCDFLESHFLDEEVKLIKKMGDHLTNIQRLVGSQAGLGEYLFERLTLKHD
Method in brief: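 Apoferritin-based anesthetic binding model; compound displacement of fluorescent 1-AMA measured as endpoint fluorescence after 10 minutes at room temperature, scaled to free-ligand and complex controls.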
In the case of `CCC(CC)C(=O)Nc1cc(C)cc(C)c1`, the Potency is reported as inconclusive: 17.8 µM [inhibitor, partial curve]. `CC(C)Cn1c(SCC(=O)c2c(N)n(C)c(=O)n(C)c2=O)nc2ccccc21` was tested, and the “activity change, negative = displacement” value was inactive: -12.7%. `O=C1/C(=C/c2cccc(Cl)c2)CSc2sccc21` was tested, and the Potency was inconclusive: 28.2 µM [inhibitor, single point]. `COc1ccc(NC(=O)CCC(=O)Nc2ccc3nc(N4CCOCC4)cc(C)c3c2)c(OC)c1` was tested, and the “activity change, negative = displacement” value was inactive: -3.36%. With `O=[N+]([O-])c1ccc(N2CCN(C(=S)Nc3ccc(F)cc3F)CC2)cc1` the Potency was inconclusive: 12.6 µM [inhibitor, partial curve]. `CC(C)OCCCNC(=O)Cn1nc(-c2ccccc2)ccc1=O` was tested, and the Potency was inconclusive: 15.8 µM [inhibitor, partial curve]. `CCN1/C(=C/c2ccc3cccc(C)c3[n+]2CC)Sc2ccccc21` was tested, and the Potency was inconclusive: 44.7 µM [inhibitor, partial curve]. For `CCCCCCNC(=O)c1cn(CC)c2cc(N3CCN(C)CC3)c(F)cc2c1=O`, the Potency was inconclusive: 14.1 µM [inhibitor, partial curve]. In the case of `COc1cccc(CNC(=O)CCS(=O)(=O)c2cccc3nonc23)c1`, the “activity change, negative = displacement” value is reported as inactive: -13.2%. In the case of `Cc1ccc(CSc2nc3ccc(NC(=O)C(C)C)cc3s2)cc1`, the “activity change, negative = displacement” value is reported as inactive: -9.13%. With `S=c1[nH]nc(-c2ccccc2)n1/N=C/c1ccc(-c2ccccc2Cl)o1` the Potency was inconclusive: 25.1 µM [inhibitor, partial curve, poor fit]. `CCNC(=S)N/N=C/c1cn(Cc2ccccc2F)c2ccccc12` was tested, and the “activity change, negative = displacement” value was inactive: 2.36%. `C=CCc1ccc(OCCOCCOc2ccccc2[N+](=O)[O-])c(OC)c1` was tested, and the Potency was inconclusive: 31.6 µM [inhibitor, partial curve]. `O=C(NCC(c1cccnc1)N1CCN(Cc2ccccc2)CC1)C(=O)Nc1ccc(Cl)cc1` (stereo not drawn) was tested, and the “activity change, negative = displacement” value was inactive: -8.43%. In the case of `CN(C)c1ccc(C=NCCC2(c3ccccc3)CCOC(C)(C)C2)cc1` (stereo not drawn), the Potency is reported as inconclusive: 39.8 µM [inhibitor, single point]. For `COc1cc(/C=C2\SC(c3ccc(C)cc3)=NC2=O)ccc1O`, the “activity change, negative = displacement” value was inactive: -19.5%. In the case of `O=C1NC(c2ccc(Cl)cc2)Oc2ccccc21` (stereo not drawn), the Potency is reported as inconclusive: 28.2 µM [inhibitor, single point]. With `NC(=O)COc1ccc(NC(=O)CC23CC4CC(CC(C4)C2)C3)cc1` the Potency was inconclusive: 15.8 µM [inhibitor, partial curve]. `O=C(Cn1c(O)c(/C=C2\C=Nc3ccccc32)sc1=O)N1CCOCC1` was tested, and the Potency was inconclusive: 10 µM [inhibitor, partial curve]. With `CCOc1cc(CNc2ccc(O)cc2)cc(Cl)c1OCc1ccccc1` the Potency was inconclusive: 50.1 µM [inhibitor, single point]. In the case of `Cc1cc(-c2ccc(Cl)s2)n[nH]1`, the Potency is reported as inconclusive: 39.8 µM [inhibitor, partial curve]. In the case of `NC(=O)c1ccsc1NC(=O)c1ccc(S(=O)(=O)N2CCCCC2)cc1`, the Potency is reported as inconclusive: 3.16 µM [inhibitor, partial curve]. In the case of `O=C1COc2ccc(S(=O)(=O)Nc3ccc(OC(F)(F)F)cc3)cc2N1`, the Potency is reported as inconclusive: 39.8 µM [inhibitor, single point]. In the case of `Cc1nn(-c2nnc(NC3CCCCC3)nn2)c(C)c1Br`, the Potency is reported as inconclusive: 50.1 µM [inhibitor, single point]. With `Cc1cc(C)c(C(=O)c2ccc(C(=O)N3CCCCC3)cc2)c(C)c1` the Potency was inconclusive: 35.5 µM [inhibitor, partial curve]. For `O=C(NCCC1=CCCCC1)c1cc(COc2ccc(F)cc2Cl)on1`, the Potency was inconclusive: 7.08 µM [inhibitor, full curve]. In the case of `CCC(Cn1nnc2ccccc2c1=O)NC(=O)Nc1ccccc1Cl` (stereo not drawn), the Potency is reported as inconclusive: 50.1 µM [inhibitor, partial curve]. For `Cc1ccc2nc(SCC(=O)c3ccc4c(c3)OCO4)[nH]c2c1`, the Potency was inconclusive: 31.6 µM [inhibitor, single point]. For `CCCCc1ccc(NC(=O)C2CCCO2)cc1` (stereo not drawn), the Potency was inconclusive: 28.2 µM [inhibitor, single point]. For `NC(=O)CC(NC(=O)c1ccccc1)c1ccc(NCc2ccc(F)cc2)c([N+](=O)[O-])c1` (stereo not drawn), the Potency was inconclusive: 31.6 µM [inhibitor, single point]. `CCN(CC)C(=O)Cn1cc(C(=O)C(=O)N2CCc3ccccc32)c2ccccc21` was tested, and the Potency was inconclusive: 28.2 µM [inhibitor, single point]. With `COc1cccc(CCNC(=O)CC2C(=O)NCCN2Cc2ccc(Cl)c(F)c2)c1` (stereo not drawn) the Potency was inconclusive: 25.1 µM [inhibitor, partial curve]. In the case of `Cc1ccc(S(=O)(=O)N/N=C/c2c[nH]c3ccccc23)cc1`, the Potency is reported as inconclusive: 15.8 µM [inhibitor, partial curve]. For `Cc1ccccc1C(=O)NN1CC(C(=O)OCc2ccc(Cl)c(Cl)c2)CC1=O` (stereo not drawn), the Potency was inconclusive: 35.5 µM [inhibitor, partial curve]. `COc1ccc(N(CC(=O)N2CCN(Cc3ccccc3)CC2)S(C)(=O)=O)cc1` was tested, and the Potency was inconclusive: 28.2 µM [inhibitor, single point]. `CC(C)Oc1ccc(C(=O)N2CCCc3ccccc32)cc1` was tested, and the Potency was inconclusive: 35.5 µM [inhibitor, partial curve]. For `Clc1ccc(OCc2cnc(Cl)s2)cc1`, the Potency was inconclusive: 28.2 µM [inhibitor, partial curve]. For `O=C(O)CCC(=O)Nc1ccc(C(=O)N2CCCCC2)cc1`, the “activity change, negative = displacement” value was inactive: -5.94%. With `COc1cccc(CNC(=O)c2cc(COc3c(F)cccc3F)on2)c1` the Potency was inconclusive: 12.6 µM [inhibitor, partial curve]. With `COc1cc(C(=O)Oc2ccc(/C=N/NC(=O)c3ccncc3)cc2)cc(OC)c1OC` the Potency was inconclusive: 39.8 µM [inhibitor, single point]. With `CC(C)(C)C(=O)/C(C#N)=C/c1cccs1` the Potency was inconclusive: 50.1 µM [inhibitor, single point]. `CNS(=O)(=O)c1cccc(C(=O)OCC(=O)c2cc3ccccc3o2)c1` was tested, and the Potency was inconclusive: 31.6 µM [inhibitor, partial curve]. With `O=C(N/N=C/c1ccc(-c2cccc(C(F)(F)F)c2)o1)c1cccc(F)c1` the “activity change, negative = displacement” value was inactive: -3.9%.
